Results published in the supplement of paper PMC4967469.

Legend:
Experiment in all cases: Viability of human cancer cell lines after 72 h of drug (GDSC screen)
[1] = compound: COc1cc2c(NC3CCN(C(C)C)CC3)nc(C3CCCCC3)nc2cc1OCCCN1CCCC1 [UNC0638]
Protocol: (§1)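 Human cancer cell lines in 384-well plates, medium with 10% serum, drug for 72 h over a 256-fold dose range (nine 2-fold or five 4-fold steps up to the top dose). Adherent lines were fixed and stained with the nucleic acid dye Syto60, suspension lines read with resazurin; signal relative to control wells, capped at 0 and 100%. One two-parameter sigmoid per drug and line, fitted in a mixed model over all curves with the slope shared within a line.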

[2] = compound: CCn1c(-c2nonc2N)nc2c(C#CC(C)(C)O)ncc(OC[C@H]3CCCNC3)c21 [GSK690693]; details: top dose 10.24 µM; top dose inferred
Protocol: as §1

[3] = compound: CC1=C(/C=C/C(C)=C/C=C/C(C)=C/C(=O)O)C(C)(C)CCC1 [Tretinoin]; details: top dose 10 µM; top dose inferred
Protocol: as §1

[4] = compound: Oc1cccc(-c2nc(N3CCOCC3)c3oc4ncccc4c3n2)c1 [PI-103]; details: top dose 10.24 µM
Protocol: as §1

[5] = compound: O=C(NCCCNc1nc(Nc2cccc(NC(=O)N3CCCC3)c2)ncc1I)c1cccs1 [BX-795]; details: top dose 5 µM; top dose inferred
Protocol: as §1

[6] = compound: Cc1cccc(-c2[nH]c(C(C)(C)C)nc2-c2ccc3c(c2)OCO3)n1 [SB-505124]; details: top dose 10 µM; top dose inferred
Protocol: as §1

[7] = top dose 20 µM, screen: GDSC drug entry 1236, top dose inferred
[8] = top dose 40 µM, screen: GDSC drug entry 245

Cell Line	AUC [1, 7]	IC50 [1, 7]	AUC [1, 8]	IC50 [1, 8]	AUC [2]	IC50 [2]	AUC [3]	IC50 [3]	AUC [4]	IC50 [4]	AUC [5]	IC50 [5]	AUC [6]	IC50 [6]
PC-3 [JPC-3] (lung adenocarcinoma, adherent)	0.918	> 20 µM	0.956	> 40 µM	0.956	> 10.2 µM	0.971	> 10 µM	0.658	2040 nM	0.967	> 5 µM	0.972	> 10 µM
PC-14 (lung adenocarcinoma, adherent)	0.839	11.6 µM	0.656	6.41 µM	0.922	> 10.2 µM	0.98	> 10 µM	0.757	3190 nM	0.851	3.2 µM	0.983	> 10 µM
PCI-4B (head and neck, adherent)	0.823	11 µM	0.654	6.53 µM	0.891	> 10.2 µM	0.936	> 10 µM	0.419	389 nM	0.762	1.7 µM	0.958	> 10 µM
PCI-15A (head and neck, adherent)	0.909	> 20 µM	0.985	> 40 µM	0.926	> 10.2 µM	0.969	> 10 µM	0.621	1380 nM	0.987	> 5 µM	0.985	> 10 µM
PCI-30 (head and neck, adherent)	0.816	14.4 µM	0.984	> 40 µM	0.982	> 10.2 µM	0.954	> 10 µM	0.905	> 10200 nM	0.836	4.43 µM	0.98	> 10 µM
PE/CA-PJ15 (head and neck, adherent)	0.891	> 20 µM	0.97	> 40 µM	0.984	> 10.2 µM	0.9	> 10 µM	0.887	> 10200 nM	0.895	> 5 µM	0.984	> 10 µM
PEO1 (ovary, adherent)	0.824	12.5 µM	0.902	> 40 µM	0.987	> 10.2 µM	0.987	> 10 µM	0.987	> 10200 nM	0.894	> 5 µM	0.985	> 10 µM
PF-382 (T-cell lymphoblastic leukaemia, suspension)	0.831	10.6 µM	0.533	3.03 µM	0.731	2.62 µM	0.987	> 10 µM	0.341	247 nM	0.91	> 5 µM	0.988	> 10 µM
PFSK-1 (medulloblastoma, adherent)	0.691	4.47 µM	0.825	25.9 µM	0.981	> 10.2 µM	0.963	> 10 µM	0.978	> 10200 nM	0.887	> 5 µM	0.888	> 10 µM
PL4 (pancreas, adherent)	0.816	11.6 µM	0.917	> 40 µM	0.987	> 10.2 µM	0.987	> 10 µM	0.893	> 10200 nM	0.938	> 5 µM	0.971	> 10 µM
QGP-1 (pancreas, adherent)	0.895	> 20 µM	0.62	6.53 µM	0.946	> 10.2 µM	0.977	> 10 µM	0.653	2210 nM	0.975	> 5 µM	0.973	> 10 µM
RC-K8 (B-cell lymphoma, suspension)	0.978	> 20 µM	0.818	18.8 µM	0.993	> 10.2 µM	0.975	> 10 µM	0.973	> 10200 nM	0.992	> 5 µM	0.971	> 10 µM
RCC-AB (kidney, adherent)	0.975	> 20 µM	0.818	32.1 µM	0.787	5.96 µM	0.981	> 10 µM	0.322	174 nM	0.921	> 5 µM	0.977	> 10 µM
RCC-ER (kidney, adherent)	0.97	> 20 µM	0.977	> 40 µM	0.978	> 10.2 µM	0.984	> 10 µM	0.816	6540 nM	0.905	> 5 µM	0.939	> 10 µM
RCC-FG2 (kidney, adherent)	0.979	> 20 µM	0.889	> 40 µM	0.882	> 10.2 µM	0.963	> 10 µM	0.873	> 10200 nM	0.86	> 5 µM	0.908	> 10 µM
RCC-JF (kidney, adherent)	0.944	> 20 µM	0.89	> 40 µM	0.909	> 10.2 µM	0.982	> 10 µM	0.479	558 nM	0.756	1.91 µM	0.921	> 10 µM
RCC-JW (kidney, adherent)	0.895	> 20 µM	0.888	> 40 µM	0.819	6.01 µM	0.984	> 10 µM	0.149	50.3 nM	0.84	3.58 µM	0.978	> 10 µM
RCC-MF (kidney, adherent)	0.948	> 20 µM	0.822	32.9 µM	0.965	> 10.2 µM	0.972	> 10 µM	0.531	798 nM	0.891	> 5 µM	0.923	> 10 µM
RCM-1 (large intestine, adherent)	0.866	> 20 µM	0.985	> 40 µM	0.985	> 10.2 µM	0.944	> 10 µM	0.985	> 10200 nM	0.968	> 5 µM	0.909	> 10 µM
RERF-LC-KJ (lung adenocarcinoma, adherent)	0.813	11.2 µM	0.833	26.9 µM	0.984	> 10.2 µM	0.985	> 10 µM	0.774	4130 nM	0.874	> 5 µM	0.968	> 10 µM

By IC50 is meant the dose at which the fit gives 50% viability; fits outside the tested doses are given as limits. AUC, from the same fit, is the share of area under the viability curve across the 256-fold dose range; values near 1 show little effect. For some of these results: Any top dose called inferred comes from the curve model; the source does not state it. For some of these results: Where an entry number is given, a second screen of the drug exists; the two often differ.
